# Data from the supplement of paper PMC8728848.
# The other results are listed elsewhere or left out.
# Tests used:
# Assay in all cases: glycan array binding signal (z-score within array); higher = stronger binding
# Settings in all cases: glycan notation: IUPAC condensed, linker removed
# [1] = target: Glc(b1-6)Glc
# Summary of the method: (§1)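 Glycan array binding is given as a within-array Z-score, which can be read as non-binding when negative. The arrays, 3228 of them, came from the Consortium for Functional Glycomics database and were retained only where the protein sequence was available. Z-scores were averaged across arrays of the same protein sequence at different concentrations or buffers and across linkers.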
# [2] = target: GlcA(b1-3)Gal
# Summary of the method: as §1
# [3] = target: GlcA(b1-3)GlcNAc
# Summary of the method: as §1
# [4] = target: GlcA(b1-6)Gal
# Summary of the method: as §1
# [5] = target: GlcA3S(b1-3)Gal(b1-4)GlcNAc(b1-2)Man
# Summary of the method: as §1
# [6] = target: GlcA3S(b1-3)Gal(b1-4)GlcNAc(b1-3)Gal(b1-4)Glc
# Summary of the method: as §1
# [7] = target: GlcNAc(a1-3)Gal(b1-4)GlcNAc
# Summary of the method: as §1
# [8] = target: GlcNAc(a1-4)Gal(b1-3)GlcNAc
# Summary of the method: as §1
# [9] = target: GlcNAc(a1-4)Gal(b1-4)GalNAc
# Summary of the method: as §1
# [10] = target: GlcNAc(a1-4)Gal(b1-4)GlcNAc
# Summary of the method: as §1
# [11] = target: GlcNAc(a1-4)Gal(b1-4)GlcNAc(b1-3)Gal(b1-4)Glc
# Summary of the method: as §1
# [12] = target: GlcNAc(a1-4)Gal(b1-4)GlcNAc(b1-3)Gal(b1-4)GlcNAc
# Summary of the method: as §1
# [13] = target: GlcNAc(a1-4)Gal(b1-4)GlcNAc(b1-3)Gal(b1-4)GlcNAc(b1-3)Gal(b1-4)GlcNAc
# Summary of the method: as §1
# [14] = target: GlcNAc(a1-4)Gal(b1-4)GlcNAc(b1-3)Gal(b1-4)[Fuc(a1-3)]GlcNAc(b1-3)Gal(b1-4)[Fuc(a1-3)]GlcNAc
# Summary of the method: as §1
# [15] = target: GlcNAc(a1-6)Gal(b1-4)GlcNAc
# Summary of the method: as §1
# [16] = target: GlcNAc(b1-2)Gal(b1-3)GalNAc
# Summary of the method: as §1
# [17] = target: GlcNAc(b1-2)Man(a1-3)[GlcNAc(b1-2)Man(a1-6)]Man(b1-4)GlcNAc(b1-4)GlcNAc
# Summary of the method: as §1
# [18] = target: GlcNAc(b1-2)Man(a1-3)[GlcNAc(b1-2)Man(a1-6)]Man(b1-4)GlcNAc(b1-4)[Fuc(a1-6)]GlcNAc
# Summary of the method: as §1
# [19] = target: GlcNAc(b1-2)Man(a1-3)[GlcNAc(b1-4)][GlcNAc(b1-2)Man(a1-6)]Man(b1-4)GlcNAc(b1-4)GlcNAc
# Summary of the method: as §1
# [20] = target: GlcNAc(b1-2)Man(a1-3)[GlcNAc(b1-4)][GlcNAc(b1-2)Man(a1-6)]Man(b1-4)GlcNAc(b1-4)[Fuc(a1-6)]GlcNAc
# Summary of the method: as §1
# [21] = target: GlcNAc(b1-2)[GlcNAc(b1-4)]Man(a1-3)[GlcNAc(b1-2)Man(a1-6)]Man(b1-4)GlcNAc(b1-4)GlcNAc
# Summary of the method: as §1
# [22] = target: GlcNAc(b1-2)[GlcNAc(b1-4)]Man(a1-3)[GlcNAc(b1-4)][GlcNAc(b1-2)Man(a1-6)]Man(b1-4)GlcNAc(b1-4)GlcNAc
# Summary of the method: as §1
# [23] = target: GlcNAc(b1-2)[GlcNAc(b1-4)]Man(a1-3)[GlcNAc(b1-4)][GlcNAc(b1-2)[GlcNAc(b1-6)]Man(a1-6)]Man(b1-4)GlcNAc(b1-4)GlcNAc
# Summary of the method: as §1
# [24] = target: GlcNAc(b1-2)[GlcNAc(b1-4)]Man(a1-3)[GlcNAc(b1-4)][GlcNAc(b1-2)[GlcNAc(b1-6)]Man(a1-6)]Man(b1-4)GlcNAc(b1-4)[Fuc(a1-6)]GlcNAc
# Summary of the method: as §1
# [25] = target: GlcNAc(b1-2)[GlcNAc(b1-6)]Man(a1-6)[GlcNAc(b1-2)Man(a1-3)]Man(b1-4)GlcNAc(b1-4)GlcNAc
# Summary of the method: as §1
# [26] = target: GlcNAc(b1-2)[GlcNAc(b1-6)]Man(a1-6)[GlcNAc(b1-2)Man(a1-3)]Man(b1-4)GlcNAc(b1-4)[Fuc(a1-6)]GlcNAc
# Summary of the method: as §1
# [27] = target: GlcNAc(b1-2)[GlcNAc(b1-6)]Man(a1-6)[GlcNAc(b1-4)][GlcNAc(b1-2)Man(a1-3)]Man(b1-4)GlcNAc(b1-4)GlcNAc
# Summary of the method: as §1
# [28] = target: GlcNAc(b1-3)Fuc
# Summary of the method: as §1
# [29] = target: GlcNAc(b1-3)Gal
# Summary of the method: as §1
# [30] = target: GlcNAc(b1-3)Gal(b1-3)GalNAc
# Summary of the method: as §1
# [31] = target: GlcNAc(b1-3)Gal(b1-4)Glc
# Summary of the method: as §1
# [32] = target: GlcNAc(b1-3)Gal(b1-4)GlcNAc
# Summary of the method: as §1
# [33] = target: GlcNAc(b1-3)Gal(b1-4)GlcNAc(b1-2)Man(a1-3)[GlcNAc(b1-3)Gal(b1-4)GlcNAc(b1-2)Man(a1-6)]Man(b1-4)GlcNAc(b1-4)GlcNAc
# Summary of the method: as §1
# [34] = target: GlcNAc(b1-3)Gal(b1-4)GlcNAc(b1-2)Man(a1-3)[GlcNAc(b1-3)Gal(b1-4)GlcNAc(b1-2)Man(a1-6)]Man(b1-4)GlcNAc(b1-4)[Fuc(a1-6)]GlcNAc
# Summary of the method: as §1
# [35] = target: GlcNAc(b1-3)Gal(b1-4)GlcNAc(b1-2)[GlcNAc(b1-3)Gal(b1-4)GlcNAc(b1-6)]Man(a1-6)[GlcNAc(b1-3)Gal(b1-4)GlcNAc(b1-2)Man(a1-3)]Man(b1-4)GlcNAc(b1-4)GlcNAc
# Summary of the method: as §1
# [36] = target: GlcNAc(b1-3)Gal(b1-4)GlcNAc(b1-3)Gal(b1-4)GlcNAc
# Summary of the method: as §1
# [37] = target: GlcNAc(b1-3)Gal(b1-4)GlcNAc(b1-3)Gal(b1-4)GlcNAc(b1-2)Man(a1-3)[GlcNAc(b1-3)Gal(b1-4)GlcNAc(b1-3)Gal(b1-4)GlcNAc(b1-2)Man(a1-6)]Man(b1-4)GlcNAc(b1-4)GlcNAc
# Summary of the method: as §1
binder,measurement,setting,value
PX9937J-pdi-523-26-523 (Parabacteroides distasonis) (protein) EPVSSISDANYWKSPDLFKAFNIGLHGLLRSQSSYNIFVLGEPRSDIYGDQPFGGEATQGVERFSYNTINAEFTGISNFANFYTTLNQINLMIRRTNETDLLGEAEKNYYLGQAYGLRAYIYFHLLRSWGDVIITTEPTLGSELDISHLDKAASPASEVMDLIKKDIDASEKAFGGDYSYKQGKCYWSKPATLMLKGEVYLWSGRQMGGGTGDYTVAKTALQDLQQNGNLKLQEKFTDVFSFNNKENSEMIFALHSGKEDDFMMWRDYNWRNNMVPQREYMAGYCDETGTPFLEIPGYNLQGLMRYQVKKDHYLKSFREGDTRLKGTLKAVYKKHEDGTLEYIAPIQYKFQGTTLEGSNERSWYDDYPIYRYADALLLLAEAKALLGEDPSTEINAVRERAYGSEYFNAHKNEVAYPNDKGSFYNDNPFEAGDENVMEAILKERLREFFFEGKRWYDLRRFGKDYVLKYTTAQESRLLWPINEGALTNNPALKQTPGY,glycan array binding signal (z-score),[1],0.051
same,glycan array binding signal (z-score),[2],-0.265
same,glycan array binding signal (z-score),[3],-0.75
same,glycan array binding signal (z-score),[4],-0.638
same,glycan array binding signal (z-score),[5],-0.935
same,glycan array binding signal (z-score),[6],-0.784
same,glycan array binding signal (z-score),[7],-0.308
same,glycan array binding signal (z-score),[8],-0.561
same,glycan array binding signal (z-score),[9],0.707
same,glycan array binding signal (z-score),[10],0.513
same,glycan array binding signal (z-score),[11],-0.799
same,glycan array binding signal (z-score),[12],-0.296
same,glycan array binding signal (z-score),[13],-0.214
same,glycan array binding signal (z-score),[14],1.32
same,glycan array binding signal (z-score),[15],-0.283
same,glycan array binding signal (z-score),[16],-0.438
same,glycan array binding signal (z-score),[17],-0.136
same,glycan array binding signal (z-score),[18],-0.729
same,glycan array binding signal (z-score),[19],-0.434
same,glycan array binding signal (z-score),[20],-0.256
same,glycan array binding signal (z-score),[21],0.146
same,glycan array binding signal (z-score),[22],-0.456
same,glycan array binding signal (z-score),[23],-0.416
same,glycan array binding signal (z-score),[24],-0.488
same,glycan array binding signal (z-score),[25],0.524
same,glycan array binding signal (z-score),[26],0.003
same,glycan array binding signal (z-score),[27],0.018
same,glycan array binding signal (z-score),[28],-0.027
same,glycan array binding signal (z-score),[29],-0.322
same,glycan array binding signal (z-score),[30],0.084
same,glycan array binding signal (z-score),[31],-0.244
same,glycan array binding signal (z-score),[32],-0.088
same,glycan array binding signal (z-score),[33],-0.352
same,glycan array binding signal (z-score),[34],0.347
same,glycan array binding signal (z-score),[35],0.594
same,glycan array binding signal (z-score),[36],-0.568
same,glycan array binding signal (z-score),[37],0.128
